Measurements as given in PubChem BioAssay AID686978 (National Center for Advancing Translational Sciences (NCATS), 2013).
Out of some 420,000 compounds screened, about 64,000 (15%) were called active. Inconclusive means that the source gave no clear call. Such entries were picked first, then a sample of the others. Calls follow the shape of the dose curve; as a rule, active = well fitted inhibition curve with a large enough effect; inconclusive = small, poorly fitted or top-dose-only effect; inactive = flat fitted curve, though single readings scatter. No potency is given beside an inconclusive call; the fits are too rough.

assay: qHTS for Inhibitors of human tyrosyl-DNA phosphodiesterase 1 (TDP1): qHTS in cells in absence of CPT; conditions: DT40 Tdp1-/- hTDP1 cells, no CPT, ATP luminescence, 48 h; activity change, negative = growth inhibition: at 46.2 µM (top of the series) unless noted; also: nearly all actives have a fitted effect of over 55% in size
Method in brief: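 Compound effects on proliferation are scored in DT40 Tdp1-/-;hTDP1 cells in the absence of CPT. ATP levels (CellTiter-Glo luminescence) are recorded after a ≥48 hr, 37 °C incubation.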
% is scaled to controls: 0 for no effect and ±100 for the full control effect; potency is read from the fitted curve at half-maximal effect; tags tell the direction and shape of the fitted curve.

Structure (SMILES)	Potency	activity change, negative = growth inhibition
COC(=O)N1CCCCC1c1cc(C(=O)Nc2ccccc2Cl)no1 (stereo not drawn)	inconclusive [inhibitor, single point]	
O=c1c(-c2nc3ccccc3s2)cccn1Cc1ccc(Cl)c(Cl)c1	inactive	
O=C(CSc1ncccn1)Nc1cccc2ccccc12	inactive	
Cc1ccccc1-n1nc2c(c1NC(=O)c1ccc(Br)o1)CSC2	inactive	
COc1ccccc1C(OC(=O)c1cccs1)C(=O)NCc1ccco1 (stereo not drawn)	inconclusive [inhibitor, single point]	
CCCN1C(=O)c2[nH]nc(-c3ccc(F)cc3)c2C1c1ccccn1 (stereo not drawn)	inconclusive [inhibitor, partial curve]	
N#Cc1c(NC(=O)C2CC(c3ccccc3Cl)=NO2)sc2c1CCC2 (stereo not drawn)	inactive	
O=C(c1ccc(Br)o1)N1CCN=C1SCc1cccc(F)c1		inconclusive: -31.3% [inhibitor]
CC1CN(C(=O)N2CCC(C(=O)NC3CCCCCC3)CC2)c2ccccc2O1 (stereo not drawn)	inconclusive [inhibitor, single point]	
CCOc1ccc(-c2cccc(NC(=O)COc3ccc(Cl)cc3)c2)nn1	inconclusive [inhibitor, single point]	
COc1cccc(C2CC(=O)N3CN(C4CCCCC4)CSC3=C2C#N)c1 (stereo not drawn)	inconclusive [inhibitor, single point]	
COc1ccc(-c2noc(CCCC(=O)NCC3CCCO3)n2)cc1 (stereo not drawn)		inconclusive: -30.3% [inhibitor]
Cc1noc(C)c1CSCC(=O)Nc1cc(S(=O)(=O)N2CCOCC2)ccc1OC(C)C	inconclusive [inhibitor, partial curve]	
O=C(NCC(=O)N1CCCCCCC1)c1ccc(Br)o1	inactive	
O=C(Cn1cnc2ccccc21)Nc1ccc(SC(F)F)cc1	active: 2.31 µM	
CC(C)(C)n1nnnc1C(c1ccccc1)N1CCN(c2ccc(F)cc2)CC1 (stereo not drawn)	inconclusive [inhibitor, single point]	
COC(=O)NN1C(=O)C(c2ccccc2)=C(c2ccc(Cl)cc2)C1=O	inconclusive [inhibitor, single point]	
O=C(ONC(=O)C1CCCCC1C(=O)NOC(=O)c1ccccc1)c1ccccc1 (stereo not drawn)	inconclusive [inhibitor, single point]	
COc1ccccc1Nc1c2c(nc3ccccc13)CCC2	active: 16.4 µM	
COc1cc(NC(=O)C(CCS(C)(=O)=O)N2Cc3ccccc3C2=O)cc(OC)c1OC (stereo not drawn)	inactive	
COc1ccc(C)cc1NC(=O)c1nn(-c2ccccc2)cc1OC	active: 20.6 µM	
CC1=NN(c2nc3ccccc3[nH]2)C(=O)C1Cc1ccccc1 (stereo not drawn)	active: 1.3 µM	
CC(=O)C[C@@H](O)CC(=O)[C@@H]1OC(=O)CCCCCCCCc2ccccc21	inconclusive [inhibitor, single point]	
CCOC(=O)c1c(C)[nH]c(C)c1C(=O)COC(=O)c1cccc(S(=O)(=O)N(CC)CC)c1	active: 29.1 µM	
O=C1C2CCCN2C(=O)N1CCN1CCN(c2cccc(C(F)(F)F)c2)CC1 (stereo not drawn)	active: 8.2 µM	

Structure (SMILES)	Potency	activity change, negative = growth inhibition
COc1ccc(C)cc1NC(=O)C1COc2ccccc2O1 (stereo not drawn)	inactive	
O=C1CSC(=S)N1N=Cc1ccc2c(c1)OCO2	inconclusive [inhibitor, single point]	
CCOC(=O)c1cc(C#N)c(N2CCNCC2)nc1C(F)(F)F	inactive	
CCOc1ccccc1CN1CCCC(C(=O)c2ccc(OC)c(OC)c2)C1 (stereo not drawn)	inconclusive [inhibitor, single point]	
COc1ccc(CCNC(=O)c2cc3c(=O)n4ccccc4nc3n(CC3CCCO3)c2=N)cc1OC (stereo not drawn)	inconclusive [inhibitor, single point]	
O=C1CCc2cc(S(=O)(=O)NCCC(=O)NC3CCCCC3)ccc2N1	inactive	
Cc1cc(NC(=O)CCC(=O)N(CCC(C)C)C(C(=O)NC2CCCC2)c2cccnc2)no1 (stereo not drawn)	inactive	
O=C(CN1C(=O)S/C(=C\c2ccccc2Cl)C1=O)NC1C=CS(=O)(=O)C1 (stereo not drawn)	inconclusive [inhibitor, single point]	
Cc1ccc2c(c1)C(N1CCCC1=O)CC(c1ccco1)N2 (stereo not drawn)	inconclusive [inhibitor, single point]	
Cc1ccc(C)c(NC(=O)CCCn2c(C)c3cnn(-c4ccccc4)c(=O)c3c2C)c1	inconclusive [inhibitor, single point]	
Cc1c(C)c2ccc(OCC(=O)N3CCC(C(=O)O)CC3)c(C)c2oc1=O	inactive	
Nc1ccc(N2CCOCC2)c2nonc12	inactive	
N#Cc1ncn(-c2ccc(Oc3ccccc3)cc2)c1N	inconclusive [inhibitor, single point]	
COc1ccc(Nc2nc3cc(-c4ccccc4C)sc3c(=O)n2C)cc1OC	inconclusive [inhibitor, single point]	
CCOC(=O)C1(Cc2ccccc2)CCN(Cc2cccc(OC)c2O)CC1	inconclusive [inhibitor, single point]	
Cc1cc([N+](=O)[O-])ccc1-c1ccc(C2Nc3ccccc3C(=O)N2O)o1 (stereo not drawn)	active: 23.1 µM	
COc1ccc(CCNC(=O)c2cc(-c3cc(C)cc(C)c3O)n[nH]2)cc1OC	inconclusive [inhibitor, single point]	
C/C(=N\NC(=O)CCC(=O)N/N=C(\C)c1ccc(C)o1)c1ccc(C)o1	inactive	
Cc1ccc2cc3cc(C(=O)N4CC(C)CC(C)C4)oc3nc2c1 (stereo not drawn)	active: 23.1 µM	
O=C(CC(=O)c1ccccc1)Nc1cccc([N+](=O)[O-])c1	inconclusive [inhibitor, single point]	
O=C(CSc1nc2c([nH]c3ccccc32)c(=O)n1-c1ccc(F)cc1)NCC1CCCO1 (stereo not drawn)	inactive	
O=C1/C(=C/c2coc3ccc(O)cc3c2=O)SC(=S)N1c1ccccc1	active: 16.4 µM	
Cc1cccc2c3c([nH]c12)C(=O)CC(C)(C)S3	inconclusive [inhibitor, single point]	
COCCn1c(SCC(=O)c2ccc3c(c2)OCCO3)nnc1-c1ccco1	inactive	
CCN(CC)CCN(Cc1cc2cc3c(cc2[nH]c1=O)OCCO3)C(=S)NCC(C)C	inconclusive [inhibitor, single point]	

Structure (SMILES)	Potency	activity change, negative = growth inhibition
Cc1ccc(C2C(=O)N(C3CCCCCC3)CC(=O)N2C(C)C)cc1 (stereo not drawn)	active: 25.9 µM	
NCCn1c(-c2ccccc2)cc(C(=O)O)c1-c1ccccc1F	inactive	
COc1ccc(C2CC(c3ccccc3)=NN2C(=O)c2cccs2)cc1 (stereo not drawn)	inconclusive [inhibitor, single point]	
Cc1ccc(S(=O)(=O)N2CCC(C(=O)Nc3ccccc3N3CCCCC3)CC2)cc1C	inconclusive [inhibitor, single point]	
COc1ccc2c(CC(=O)Nc3ccc4nc(N5CCOCC5)sc4c3)coc2c1	inconclusive [inhibitor, single point]	
O=S(=O)(c1ccc(S(=O)(=O)N2CCCC3(CCCCC3)C2)cc1)N1CCCCC1	inconclusive [inhibitor, single point]	
COc1ccccc1N(C)S(=O)(=O)c1ccc(Cl)c(C(=O)N2CCC(C(N)=O)CC2)c1	inconclusive [inhibitor, partial curve]	
O=C(N/N=C/c1cccc([N+](=O)[O-])c1)c1ccc2c(c1)OCCO2	inconclusive [inhibitor, single point]	
COc1cc(CCC(=O)N2CCN(c3ccccc3Cl)CC2)cc(OC)c1OC	active: 11.6 µM	
CC(C)c1csc(CN2CCC(N3CCC(C(=O)N4CCOCC4)CC3)CC2)n1	inconclusive [inhibitor, partial curve]	
CCc1c(O)nc(SCc2ccc(F)cc2)[nH]c1=O	inactive	
COc1ccc(NC(=O)c2ccco2)cc1NC(=O)c1ccc(C)cc1	inconclusive [inhibitor, partial curve]	
CC(C)C[C@@H](C(=O)NC1CCN(Cc2ccccc2)CC1)N1C(=O)N2CCc3c([nH]c4ccccc34)[C@@]2(C)C1=O	active: 20.6 µM	
CC(=O)NCCCN(Cc1ccc(Cl)c(Cl)c1)c1ccc(Br)cn1	inconclusive [inhibitor, single point]	
Cc1cccc(C(=O)NCC(=O)N2CC=C(c3ccccc3)CC2)c1	inconclusive [inhibitor, single point]	
Cc1ccc(S(=O)(=O)N2CCN(C(=O)CN3C(=O)CNC3=O)CC2)cc1	inactive	
Cc1ccc(S(=O)(=O)N2CCC(=O)N([C@H](COCc3ccc(Cl)cc3Cl)Cc3ccccc3)CC2)cc1	active: 23.1 µM	
N#Cc1ccc(C(c2nnnn2CCc2ccccc2)N2CCCCCC2)cc1 (stereo not drawn)	inconclusive [inhibitor, single point]	
O=C(O)C1CC(O)CN1C(=O)c1ccco1 (stereo not drawn)	inactive	
CCOC(=O)[C@]12CCCC=C1N(CCc1ccc(OC)c(OC)c1)C(=O)[C@H](CC(=O)NCc1ccc(C)o1)C2	active: 16.4 µM	
C#CCn1c(CCNC(=O)c2ccco2)nc2ccccc21	inactive	
O=C(CSc1ccccc1)N1CCc2c([nH]c3ccccc23)C1c1ccc(Cl)cc1 (stereo not drawn)	inconclusive [inhibitor, single point]	
O=C(c1cccc(-n2cccc2)c1)N1CCN(S(=O)(=O)c2ccccc2Br)CC1	inconclusive [inhibitor, partial curve]	
